Test results taken from PubChem BioAssay AID894 (National Center for Advancing Translational Sciences (NCATS), 2007).
Where “and” joins values, the source holds several entries; their conditions need not be identical. Equal values may be shown once. Among all 150,000 compounds or so, about 6,500 (4.3%) were called active. The inconclusive results got no clear call from the source; some entries with a clear call stand among them for comparison. Calls come from the whole dose curve; as a rule, active = well fitted inhibition curve with a large enough effect (not every such curve was filed as active); inconclusive = small, poorly fitted or top-dose-only effect, or another doubt; inactive = no such curve, though single readings can be large or run the other way. Potencies beside an inconclusive call are fits to weak or partial responses and may not hold up.

Target: 15-hydroxyprostaglandin dehydrogenase [NAD(+)] (Homo sapiens) (UniProt P15428)
Experiment: qHTS Assay for Inhibitors of HPGD (15-Hydroxyprostaglandin Dehydrogenase)
Conditions: purified HPGD, NADH fluorescence kinetic, PGE2 substrate; activity change, negative = inhibition: stronger effect = lower value
Outline: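 20 nM HPGD preincubated 15 min at room temperature with compound in 50 mM Tris-HCl pH 8, 0.01% Tween 20. Started with 1 mM NAD+ and 30 uM prostaglandin E2; NADH fluorescence (360/450 nm) read 5 times over 30-s intervals, last minus first.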
% is set by controls: 0 for no effect and ±100 for the full control effect; potency is the fitted concentration of half-maximal effect; tags give direction and shape of the fitted curve.

Chain of UniProt P15428 (P15428 whole entry, looked up): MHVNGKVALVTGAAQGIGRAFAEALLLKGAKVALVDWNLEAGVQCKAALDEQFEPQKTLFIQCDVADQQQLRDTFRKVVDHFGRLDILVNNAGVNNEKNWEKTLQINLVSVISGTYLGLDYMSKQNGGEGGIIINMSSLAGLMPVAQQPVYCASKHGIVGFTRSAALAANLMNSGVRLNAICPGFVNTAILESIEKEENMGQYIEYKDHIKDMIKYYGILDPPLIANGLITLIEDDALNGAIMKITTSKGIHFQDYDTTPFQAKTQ

Potency, active:
CCOc1ccc(NC2=C(OC)C(=O)c3ccccc3C2=O)cc1 20 µM
O/N=C/c1ccc(-c2cc(Cl)ccc2Cl)o1 4.47 µM
Cc1ccc(O)c(C(=O)c2cnc3c(c2)CN(C)C(=O)N3)c1 28.2 µM
O=C1CN(C(=O)CSc2nnc(Nc3ccccc3)s2)c2ccccc2N1 2.24 µM
COc1ccc(C(=O)NC(=S)N2CCCCC2)cc1 17.8 µM
CC(/C=N/n1c(-c2cc(C)[nH]n2)n[nH]c1=S)=C\c1ccccc1 10 µM
CCn1c(O)c(C=Nc2ccccc2)oc1=S 15.8 µM
CC1(C)Cc2[nH]c(=S)c(C#N)cc2CO1 25.1 µM
O=C1NCCCC2c3c(cc(Br)c(O)c3Br)OC12N1CCOCC1 (stereo not given) 31.6 µM

Potency, inconclusive:
COc1ccc(OC)c(C2=NOC(C(=O)Nc3cccnc3)C2)c1 (stereo not given) 25.1 µM [inhibitor, partial curve]
O=C(NS(=O)(=O)c1ccccc1)c1ccccc1F 3.55 µM [inhibitor, single point]
CN(C)c1ccc(-c2nccc(NCCN3CCOCC3)n2)cc1 28.2 µM [inhibitor, partial curve]
Cc1ccccc1NC(=O)CSc1ccsc1[N+](=O)[O-] 31.6 µM [inhibitor, partial curve]
NC(=O)c1ccccc1NS(=O)(=O)c1ccccc1 11.2 µM [inhibitor, partial curve]
COCCn1c(=NC(=O)CSCC(=O)NC2CCCCC2)sc2cc(OC)ccc21 25.1 µM [inhibitor, partial curve]
Fc1cccc(-n2c(-c3ccco3)nc3nc4ccccc4nc32)c1 0.794 µM [inhibitor, full curve]
O=c1[nH]c2cc3c(cc2cc1C(c1nnnn1Cc1ccccc1)N1CCN2CCCC2C1)OCCO3 (stereo not given) 17.8 µM [inhibitor, partial curve]
COc1ccc(/C=N/Nc2nc(-c3cccc(S(=O)(=O)N4CCCC4)c3)cs2)cc1OC 28.2 µM [inhibitor, partial curve]
COc1ccc2nc(/N=C(\N)NC(=O)N3c4ccccc4Sc4ccccc43)nc(C)c2c1 31.6 µM [inhibitor, partial curve]
O=C1CN(S(=O)(=O)c2ccc(F)cc2)CC(=O)N1CCc1ccccc1 35.5 µM [inhibitor, partial curve]
CC1(C)Cc2c(C#N)c(NCCCO)nc(-c3ccccc3)c2CO1 17.8 µM [inhibitor, partial curve]
CCCCCC(=O)Nc1nc(C)c(-c2csc(Nc3cc(OC)ccc3OC)n2)s1 22.4 µM [inhibitor, partial curve]
CCCCCn1c(NC(=O)c2ccco2)c(S(=O)(=O)c2ccc(C)cc2)c2nc3ccccc3nc21 3.16 µM [inhibitor, full curve]
CC1=Nc2ccccc2/C1=C/c1sc(=N)n(-c2nccs2)c1O 31.6 µM [inhibitor, single point]
CN1CCc2c(sc3c2C(=O)NC(c2ccccn2)N3)C1 (stereo not given) 28.2 µM [inhibitor, partial curve]
CCc1nnc(NC(=O)CSc2ncnc3c2cnn3-c2ccc(OC)cc2)s1 31.6 µM [inhibitor, single point]
Clc1ccc(OCCOCCOc2cccc3cccnc23)c(Br)c1 31.6 µM [inhibitor, partial curve]
CCOC(=O)c1cnc2c(cnn2CC)c1NN=C(C)C 28.2 µM [inhibitor, partial curve] and 31.6 µM [inhibitor, partial curve]
COc1cc(-c2c(C#N)c(N)nc3c2c(C)nn3-c2ccc(C)c(C)c2)cc(OC)c1OC 31.6 µM [inhibitor, partial curve]
CC(C)CN(C(=O)c1ccc(=O)n(C)n1)c1nc2ccccc2s1 22.4 µM [inhibitor, partial curve]

Activity change, negative = inhibition, inactive:
CCCCC(=O)OC1CCC2C3CCc4cc(O)ccc4C3CC[C@]12C (stereo not given in full) -28.7%
O=C(c1cc(C(F)(F)F)cc(C(F)(F)F)c1)N1CCC2(CC1)CCN(c1ccccc1)CC2 -5.23%
O=C(NCCCN1CCN(CCCNC(=O)c2cc([N+](=O)[O-])ccc2Cl)CC1)c1cc([N+](=O)[O-])ccc1Cl -14.6%
COC(=O)c1ccccc1NC(=O)CN1CCN(C23CC4CC(CC(C4)C2)C3)CC1 -13.3%
O=C(Nc1ccc2c(c1)OCO2)c1ccc(NC2CC2)c([N+](=O)[O-])c1 -15.2%
COc1ccc(N2CCN(S(=O)(=O)c3cccs3)CC2)cc1 -6.64%
O=C(c1cnccn1)N1CCC2(CC1)CN(Cc1cc(C(F)(F)F)cc(C(F)(F)F)c1)C2 -1.23%
C=CCOC(=O)N[C@@H](c1ccccc1)[C@@H](C)[N+](=O)[O-] -3.5%
CC(NC(=O)Nc1ccccc1)C(c1cccs1)N1CCOCC1 (stereo not given) -2.04%
Cc1cc(C)nc(NC2=NCC(=O)N2c2ccc3c(c2)OCCO3)n1 -10.8%
CCOC(=O)c1sc(NC(=O)COC(=O)Cn2cnc3ccccc32)c(C(=O)OCC)c1C -2.36%
COCCn1nnnc1CN(CCc1ccc(OC)c(OC)c1)Cc1cc2ccc(C)cc2[nH]c1=O -14.4%
Cc1ccc(S(=O)(=O)N2CCN(C(=O)N(C)C)CC2)cc1C 5.3%
COC(=O)[C@@]1(Cc2ccc(F)cc2)[C@H]2c3cc(C(=O)N4CCCC4)n(CCc4c[nH]c5cc(F)ccc45)c3C[C@H]2CN1C(=O)c1ccccc1 -15.3%
CC1=C(C(=O)OC(C)C)C(c2cncc(-c3ccc(F)cc3)c2)C(C#N)=C(N)O1 (stereo not given) -12.7%
